The values below come from PubChem BioAssay AID1963576 (National Center for Advancing Translational Sciences (NCATS), 2024).

Among all 46,000 compounds or so, about 60 (0.1%) were called active. About 3% were inconclusive and are not listed. Calls follow the shape of the dose curve; as a rule, active = well fitted inhibition curve with a large enough effect; inconclusive = small, poorly fitted or top-dose-only effect; inactive = no such curve, though single readings can be large or run the other way. The list shows a part of the results.

The experiment in a line: Primary qHTS assay for Inhibitors of ovarian cancer metastasis using an organotypic tumor microenvironment (TME) model. Also: nearly all actives have a fitted effect of over 65% in size.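 As to activity change, negative = inhibition: plate controls were DMSO wells for no effect and tomatine positive control wells for full effect.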 To be noted: SKOV3ip1-GFP adhesion/invasion on 3D omental model, fluorescence; series mostly up to 45.8 µM; activity change, negative = inhibition: at the top concentration. A digest of the protocol:
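Primary human omental fibroblast/mesothelial 3D culture pre-formed 48 h. SKOV3ip1-GFP cells added with compounds (0.36-46 umol/L), incubated 2 h RT/16 h 37 C, fixed; GFP cells quantified at 488/509 nm.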
In general terms: qHTS replaces the single test concentration by a dilution series.
Regarding `Cc1ccc(NCc2cc3cc4c(cc3n(CC(=O)Nc3ccc(F)cc3F)c2=O)OCCO4)cc1`, the “activity change, negative = inhibition” value was inactive: 18.2%. Turning to `CCOc1ccc(S(=O)(=O)NCc2ccc3c(c2)CCN3C(=O)c2ccc(C)cc2)cc1`, the “activity change, negative = inhibition” value was inactive: 3.96%.

Turning to `O=C(Nc1ccc(C(F)(F)F)cc1)c1cc(S(=O)(=O)N2CCCc3ccccc32)ccc1F`, the “activity change, negative = inhibition” value was inactive: 6.74%.

As for `Cc1ccc(CN2c3ccccc3-c3nc(SCC(=O)NCCc4ccccc4)ncc3S2(=O)=O)cc1`, the “activity change, negative = inhibition” value is inactive: -9.54%. Consider `O=C(CN1C(=O)C2(SCC(=O)N2c2cccc(F)c2)c2ccccc21)NCc1ccccc1Cl` (configuration not stated), for which the “activity change, negative = inhibition” value was inactive: 1.31%. As for `Clc1ccc(CN2CCc3nc(N4CCN(c5ccccn5)CC4)ncc3C2)cc1`, the “activity change, negative = inhibition” value was inactive: 0.731%.

For `O=C(/C=C/c1ccccc1)Nc1nc2n(n1)C(c1ccc(Cl)cc1)C=C(c1ccccc1)N2` (configuration not stated), the “activity change, negative = inhibition” value is inactive: 0.902%. `Cc1nnsc1C(=O)Oc1ccc(C#N)cc1`: the “activity change, negative = inhibition” value is inactive: 3.31%. The same measure, in the same setting: then `CCOC(=O)c1ccc(Oc2nc(C)nc3c2oc2ccccc23)cc1`, with inactive: -4.15%. Regarding `CC(C)(C)c1ccc(S(=O)(=O)c2cnc(SCC(=O)Nc3ccc4c(c3)OCCO4)[nH]c2=O)cc1`, the molecule was classed as inactive. `CC(C)CC(=O)NCC(c1ccc2c(c1)OCO2)N1CCN(c2ccc(F)cc2)CC1` (configuration not stated): the “activity change, negative = inhibition” value was inactive: -18.8%.

On to `CCOC(=O)c1cc(-c2ccccc2)n(CCCC(=O)Nc2cccc(C)c2)c1C`, for which the “activity change, negative = inhibition” value is inactive: -3.91%. Turning to `CCc1nc2ccccc2n1CCCCOc1cccc(C)c1`, the “activity change, negative = inhibition” value is inactive: 12.7%.

As for `CCCOc1ccc(NC(=O)CC2C(=O)N(c3ccc(OC)cc3)C(=O)N2CCc2ccncc2)cc1` (configuration not stated), the “activity change, negative = inhibition” value is inactive: -4.99%. On the same count and under the same terms, the result for `Cc1nn(-c2ccc(N3CCCCC3)nn2)c(C)c1CCC(=O)NCc1ccccc1` reads inactive: -5.58%. As for `COc1ccc(-c2cn3c(n2)sc2cc(C(=O)NCCCc4ccccc4)ccc23)cc1`, the “activity change, negative = inhibition” value is inactive: 5.58%. Consider `CCN(CC)C(=O)CSc1nc2cc3c(cc2c(=O)n1CCCC(=O)NCc1ccc2c(c1)OCO2)OCO3`, for which the molecule was classed as inactive. `O=C(Cn1nc(N2CCN(c3ccccc3)CC2)ccc1=O)NCc1ccccc1F`: the “activity change, negative = inhibition” value was inactive: -2.73%.

For the molecule `COc1ccc2nc(SCC(O)c3cccc(Br)c3)[nH]c2c1` (configuration not stated), the molecule was called inactive. For the molecule `CCCS(=O)(=O)c1nc(S(=O)(=O)c2ccc(C)cc2)c(NCCCOC(C)C)s1`, the “activity change, negative = inhibition” value was inactive: 11.5%. The same measure, in the same setting: the result for `COc1cccc2c1cc1c(=O)n(CC(=O)N3CCN(c4ccc(F)cc4)CC3)nc(C)n12` reads inactive: -3.45%.

On to `CCOc1ccc(C(=O)N(Cc2nc(-c3cccc(C)c3)no2)C(C)C)cc1`, for which the “activity change, negative = inhibition” value is inactive: -24%. Turning to `Cn1c(=O)c2c(nc(NCCc3ccccc3)n2Cc2ccccc2Br)n(C)c1=O`, the “activity change, negative = inhibition” value is inactive: -1.32%. Take `Cc1ccc(-c2nnc(SCC(=O)NC(C)(C)C)nc2-c2ccc(C)cc2)cc1`: the “activity change, negative = inhibition” value was inactive: -20%. Regarding `CCOc1ccc(NC(=O)c2cn(C3CCCCC3)c(=O)c3c2c2ccccc2n3C)cc1`, the outcome was inactive. For `Cc1cccc(C(=O)Nc2ccccc2OCc2cc(=O)n3ccccc3n2)c1`, the “activity change, negative = inhibition” value was inactive: -1.94%. For the molecule `CCOc1ccc(CNC(=O)CCCn2c(=O)c3cccn3c3ccccc32)cc1`, the molecule was called inactive.

With `CC(C)(C)c1cc(C(=O)O)c(NC(=O)Nc2ccc3[nH]ncc3c2)s1`, the “activity change, negative = inhibition” value is inactive: -1.78%. In the case of `COc1ccc(-c2nc(CN3CCC(C(=O)NCc4ccc(C)cc4)CC3)c(C)o2)cc1OC`, the “activity change, negative = inhibition” value was inactive: 0.395%.

For `COc1ccc(C(=O)n2nc(-c3cccnc3)nc2NCc2ccccc2)cc1OC`, the “activity change, negative = inhibition” value is inactive: 8.21%. Consider `CCOc1ccccc1Nc1nc2ccccc2nc1NS(=O)(=O)c1ccc(Cl)cc1`, for which the molecule was called inactive. With `COc1ccccc1CNc1ncnc2onc(-c3ccc(F)cc3)c12`, the “activity change, negative = inhibition” value was inactive: -11.9%.

Consider `COc1ccc(CCNC(=O)C(=O)NCC(c2cccs2)S(=O)(=O)c2cccs2)cc1` (configuration not stated), for which the “activity change, negative = inhibition” value was inactive: -21.6%. Turning to `COc1ccc(CNC(=O)CN2C(=O)COc3ccc(S(=O)(=O)N4CCCCC4)cc32)cc1`, the “activity change, negative = inhibition” value is inactive: 35%.

For the molecule `Cc1ccc(-c2noc(-c3cccnc3NCc3ccco3)n2)cc1`, the “activity change, negative = inhibition” value is inactive: -4.89%.

For `COc1ccc2c(CNC3CCCCCC3)c(C(=O)O)n(Cc3ccc(C)cc3)c2c1`, the “activity change, negative = inhibition” value is inactive: -1.99%. In the case of `Cc1cc(F)ccc1NC(=O)Cn1nc(N2CCN(c3ccccc3)CC2)ccc1=O`, the “activity change, negative = inhibition” value was inactive: -4.97%. For the molecule `CCOc1cccc(C(=O)Nc2ccc3oc(-c4ccncc4)nc3c2)c1`, the “activity change, negative = inhibition” value is inactive: 8.91%. For `Cc1cc(C)c(NC(=O)CSc2nc3nccnc3c(=O)n2CCc2c[nH]c3ccccc23)c(C)c1`, the “activity change, negative = inhibition” value was inactive: -24.6%. Still for that read-out and setting: the result for `COc1cc(OC)c(NS(=O)(=O)c2c(C)nc3sc(C)cn3c2=O)cc1Cl` reads inactive: 4.99%; that for `COc1ccc(-c2cc(OC(=O)c3ccccc3Cl)c3c(C)oc(C)c3c(=O)c2)cc1OC`, inactive: -24.4%; that for `CCc1nnc(SCc2cccc(Cl)c2)c2cc3sccc3n12`, inactive: -22.7%. As to `CCCSc1oc(-c2cccs2)nc1S(=O)(=O)c1ccc(C)cc1`, the “activity change, negative = inhibition” value was inactive: 0.159%. Same read-out and setting: the result for `COc1ccc(NC(=O)Cn2c(=O)n(CCCCCC(=O)NCc3ccc4c(c3)OCO4)c(=O)c3sccc32)cc1Cl` reads inactive: -2.73%.

With `O=C(Nc1cccc(C(=O)OCc2cc(=O)n3c4c(sc3n2)CCCC4)c1)c1ccc(Cl)cc1`, the call was inactive.

Consider `O=C(Cn1cc(SCc2ccc(F)cc2)c2ccccc21)N1CCCCC1`, for which the call was inactive. On to `Cc1ccc(Cn2c(C)c3cnn(CC(=O)O)c(=O)c3c2C)cc1`, for which the “activity change, negative = inhibition” value was inactive: -1.34%.
